We go through 26 compounds from ChEMBL document CHEMBL5606460, “ASAP - DENV-2 NS2B-NS3 protease fluorescence single point” (2024).

Among all 2,000 compounds or so, about 110 (5.5%) showed an effect of 50% or more. This is one part of the list.

This experiment has as its target Genome polyprotein (dengue virus type 2) (UniProt P29990).
The mark [1] stands for this setting: Thailand/16681/1984, Concentration 25.0 uM, Number of replicates 1.0.

A word on the inhibition: it is the change of the read-out against control, counted positive when it falls. `Cc1cc(CO)c2cccc(NC(=O)C3CNC3)c2n1`: the inhibition (Thailand/16681/1984, Concentration 99.9 uM, Number of replicates 2.0, Standard deviation 1.2849235527062883 %) is -8.19%.
Turning to `Cc1cc(C)cc(OCCN(C)C(=O)C2CCN(c3ccc(C=O)cc3)CC2)c1`, under setting [1], the inhibition stood at 11.6%.
As to `CCn1nccc1CN1CCC(c2c[nH]c3cccnc23)CC1`, the inhibition by setting is: (Thailand/16681/1984, Concentration 49.5 uM, Number of replicates 2.0, Standard deviation 1.2123103279136882 %) -0.438%; (Thailand/16681/1984, Concentration 99.01 uM, Number of replicates 2.0, Standard deviation 0.9380972206038385 %) -0.368%; (Thailand/16681/1984, Concentration 198.0 uM, Number of replicates 2.0, Standard deviation 0.6436790194849873 %) 0.392%.
With `Cn1cc(CNC(=O)c2ccccc2C2CCNCC2)cn1`, the inhibition was -2.64% (Thailand/16681/1984, Concentration 49.5 uM, Number of replicates 2.0, Standard deviation 1.9707471026255017 %); -2.8% (Thailand/16681/1984, Concentration 99.01 uM, Number of replicates 2.0, Standard deviation 1.735749172264401 %); -2.33% (Thailand/16681/1984, Concentration 198.0 uM, Number of replicates 2.0, Standard deviation 0.011774480774791443 %).
With `CN1CCN(c2ccc(CNC(=O)C3CCN(c4ccc(C=O)cc4)CC3)cc2)CC1`, the inhibition under setting [1] came out at 13.3%.
The same measure, in the same setting: the result for `C[C@@H](C(=O)c1cccc(Cl)c1)N(C(=O)C1CCN(c2ccc(C=O)cc2)CC1)C(C)(C)C` reads 11%.
Regarding `CSCC[C@H](NC(=O)OC(C)(C)C)C(=O)N1CCC[C@H]1C(=O)Nc1cccc2ncccc12`, the inhibition runs as follows: (Thailand/16681/1984, Concentration 49.5 uM, Number of replicates 2.0, Standard deviation 0.8146661497156525 %) 0.598%; (Thailand/16681/1984, Concentration 99.01 uM, Number of replicates 2.0, Standard deviation 1.2117142239617744 %) 1.55%; (Thailand/16681/1984, Concentration 198.0 uM, Number of replicates 2.0, Standard deviation 0.6840708310770393 %) 1.15%.
With `COc1ccc(Cl)c2sc(NC(=O)c3ccccc3NS(=O)(=O)c3ccc(Cl)cc3)nc12`, the inhibition (Thailand/16681/1984, Concentration 198.0 uM, Number of replicates 2.0, Standard deviation 9.166560145189157 %) was 8.28%.
Turning to `Cc1nc(Br)ccc1NC(=O)C1CCN(c2ccc(C=O)cc2)CC1`, under setting [1], the inhibition was found to be 13.4%.
For the compound `COC(=O)c1ccc(F)c(Cn2cc(C3CCNCC3)c(C)n2)c1`, the inhibition by setting is: (Thailand/16681/1984, Concentration 49.5 uM, Number of replicates 2.0, Standard deviation 1.96689901106276 %) -0.608%; (Thailand/16681/1984, Concentration 99.01 uM, Number of replicates 2.0, Standard deviation 1.219684003354366 %) -0.57%; (Thailand/16681/1984, Concentration 198.0 uM, Number of replicates 2.0, Standard deviation 1.1083766841745815 %) 0.281%.
As to `CC(=O)N1CCC(N(C)C(=O)C2CCN(c3ccc(C=O)cc3)CC2)CC1`, under setting [1], the inhibition was 10.9%.
The same measure, in the same setting: the result for `C[C@H](NC(=O)C1CCN(c2ccc(C=O)cc2)CC1)c1ccc([N+](=O)[O-])cc1` reads 13.8%; that for `O=Cc1ccc(N2CCC(C(=O)Nc3ncc(Br)c(C(F)(F)F)n3)CC2)cc1`, 13.3%; that for `Cc1nc(NC(=O)C2CCN(c3ccc(C=O)cc3)CC2)ccc1Br`, 12.1%.
On the same count and under the same terms, the result for `Cc1ccc(CNC(=O)C2CCN(c3ccc(C=O)cc3)CC2)cc1Cl` reads 1.22%; that for `O=Cc1ccc(N2CCC(C(=O)N[C@H](CO)CC3CCCCC3)CC2)cc1`, 11.2%.
The same measure, in the same setting: the result for `O=Cc1ccc(N2CCC(C(=O)Nc3ccc([N+](=O)[O-])cc3)CC2)cc1` reads 24.6%.
With `CCc1noc(Cn2cc(C3CCNCC3)c(C)n2)n1`, the inhibition runs as follows: (Thailand/16681/1984, Concentration 49.5 uM, Number of replicates 2.0, Standard deviation 0.763376195696472 %) -3.65%; (Thailand/16681/1984, Concentration 99.01 uM, Number of replicates 2.0, Standard deviation 1.694047900235964 %) -3.73%; (Thailand/16681/1984, Concentration 198.0 uM, Number of replicates 2.0, Standard deviation 0.453806581859591 %) -4.1%.
On to `Cc1cc(CO)c2cccc(C[C@H](NC(=O)c3ccno3)C(=O)O)c2n1`, for which the inhibition runs as follows: (Thailand/16681/1984, Concentration 49.95 uM, Number of replicates 2.0, Standard deviation 0.19795194633808622 %) 5.14%; (Thailand/16681/1984, Concentration 99.9 uM, Number of replicates 2.0, Standard deviation 0.9228743689775827 %) 11.5%.
On to `O=Cc1ccc(N2CCC(C(=O)Nc3ccccc3)CC2)cc1`, for which the inhibition under setting [1] amounted to 12.1%.
With `Cc1cc(CO)c2cccc(Cc3cccc(NC(=O)[C@@H]4CCCC[C@H]4C(=O)O)c3)c2n1`, the inhibition worked out at 2.94% (Thailand/16681/1984, Concentration 49.95 uM, Number of replicates 2.0, Standard deviation 2.18231720147964 %) and 9.01% (Thailand/16681/1984, Concentration 99.9 uM, Number of replicates 2.0, Standard deviation 0.994920528996893 %).
On to `O=Cc1ccc(N2CCC(C(=O)Nc3cc(F)c(F)cc3Br)CC2)cc1`, for which the inhibition under setting [1] turned out to be 12.6%.
Take `Cc1cc(CO)c2cccc(Cc3ccccc3NC(=O)[C@@H]3CC(=O)CCN3)c2n1`: the inhibition is, setting by setting: (Thailand/16681/1984, Concentration 49.95 uM, Number of replicates 2.0, Standard deviation 0.7311314963621214 %) 7.33%; (Thailand/16681/1984, Concentration 99.9 uM, Number of replicates 2.0, Standard deviation 0.026310423064016666 %) 18.5%.
With `CN1CCN2CCN(C(=O)C3CCN(c4ccc(C=O)cc4)CC3)C[C@H]2C1`, the inhibition under setting [1] came to 12%.
In the case of `CC(=O)Nc1ccc(C(=O)Nc2ccccc2Cc2cccc3c(CO)cc(C)nc23)cn1`, the inhibition is, setting by setting: (Thailand/16681/1984, Concentration 49.95 uM, Number of replicates 2.0, Standard deviation 1.6858954774753503 %) 2.11%; (Thailand/16681/1984, Concentration 99.9 uM, Number of replicates 2.0, Standard deviation 1.2573247847769908 %) 6.57%.
Regarding `CCCCCNC(=O)c1cc(Cl)ccc1NS(=O)(=O)c1ccc(Oc2ccccc2Cl)cc1`, the inhibition (Thailand/16681/1984, Concentration 49.5 uM, Number of replicates 2.0, Standard deviation 0.23227296801747743 %) worked out at 78.7%; the inhibition (Thailand/16681/1984, Concentration 99.01 uM, Number of replicates 2.0, Standard deviation 0.006678758202430312 %) came out at 76.9%; the inhibition (Thailand/16681/1984, Concentration 198.0 uM, Number of replicates 2.0, Standard deviation 0.04271599955318515 %) worked out at 65.6%.
